Data reported in PubChem BioAssay AID2546 (National Center for Advancing Translational Sciences (NCATS), 2010).
About 11,000 (3.5%) of roughly 310,000 compounds were called active. Inconclusive means that the source gave no clear call. Such entries were picked first, then a sample of the others. The call rests on the fitted dose curve; in most records, active means well fitted inhibition curve with a large enough effect; inconclusive means small, poorly fitted or top-dose-only effect, or effect the other way; inactive means flat fitted curve, though single readings scatter. Potencies of inconclusive entries are left out as doubtful fits.

assay: VP16 counterscreen qHTS for inhibitors of ROR gamma transcriptional activity; details: Drosophila S2 Gal4-VP16 UAS-luciferase, luminescence, 20 h; activity, negative = inhibition: at 53.6 µM (top of the series);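 further: Gal4-VP16 expression switched on by copper sulfate through the metallothionein promoter; nearly all actives have a fitted effect of over 50% in size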
On the % scale 0 is the no-effect control and ±100 the full control effect; potency means the concentration at half of the fitted maximal effect; tags describe the fitted curve by direction and shape.

Q: For `COC(=O)c1cccc(/C=N/NC(N)=S)c1O`, which Potency is on record?
A: The Potency was active: 7.08 µM.

Q: With `Clc1ccc(-c2cn3cc(Br)ccc3n2)cc1Cl` as the molecule, how does the Potency read?
A: The Potency was inconclusive [inhibitor, single point].

Q: Which Potency does the source give for `Cc1ccccc1/C=N/Nc1nc2ccccc2c(=O)n1O` here?
A: The Potency was inconclusive [inhibitor, single point].

Q: For `COc1ccccc1CN=C1Nc2ccccc2CS1`, which Potency is on record?
A: The Potency was inconclusive [inhibitor, single point].

Q: For `C=CCN1C(=O)N/C(=C/c2ccc(C)o2)C1=O`, which Potency is on record?
A: The Potency was active: 5.01 µM.

Q: With `Cc1cc(C)n(-c2nc(NC(C)(C)C)nc(NC(C)(C)C)n2)n1` as the molecule, how does the Potency read?
A: Its Potency is inconclusive [inhibitor, partial curve].

Q: Which Potency does the source give for `CCCCOc1ccc(N2C(=O)CC(NCc3ccncc3)C2=O)cc1` (stereo not given) here?
A: Its Potency is inconclusive [inhibitor, single point].

Q: Which “activity, negative = inhibition” value does the source give for `COc1ccc(NC(=O)c2csc(C)c2)cc1OC` here?
A: The value was inactive: -14%.

Q: Which Potency does the source give for `O=C(NNC(=S)NC1CCCCC1)c1ccccc1Br` here?
A: The Potency was inconclusive [inhibitor, partial curve].

Q: Which Potency does the source give for `CCOC(=O)c1c(-c2ccccc2)csc1NC(=O)CSc1ccccc1` here?
A: Its Potency is inconclusive [activator, single point].

Q: For `COc1ccc(C2=NN(C(N)=S)C(c3ccccc3)C2)cc1` (stereo not given), which Potency is on record?
A: The Potency was inconclusive [inhibitor, single point].

Q: For `Cc1cc(C)nc(NN2C(=O)C=CC2=O)n1`, which Potency is on record?
A: Its Potency is inconclusive [inhibitor, single point].

Q: With `NNc1nc(C(F)(F)F)nc2ccccc12` as the molecule, how does the Potency read?
A: The Potency was inconclusive [inhibitor, single point].

Q: Which Potency does the source give for `Clc1ccccc1Nc1nnc(-c2ccncc2)s1` here?
A: The Potency was inconclusive [inhibitor, partial curve, poor fit].

Q: For `CCn1c(COc2ccc(C)cc2)nnc1SCc1nc2ccccc2[nH]1`, which Potency is on record?
A: Its Potency is inconclusive [inhibitor, single point].

Q: For `COc1ccc(CN2CCN(c3ccc(F)cc3)CC2)c(OC)c1OC`, which “activity, negative = inhibition” value is on record?
A: The value was inactive: -15.9%.

Q: Which Potency does the source give for `COc1ccc(C(=O)Nc2cccc(-c3nc4ncccc4o3)c2C)cc1OC` here?
A: Its Potency is inconclusive [inhibitor, single point].

Q: Which Potency does the source give for `Cc1cc2occ(CC(=O)NC3=NCCS3)c2cc1C(C)C` here?
A: Its Potency is active: 12.6 µM.

Q: With `O=C(O)CCN1C(=O)c2ccc(NC(=O)c3cccs3)cc2C1=O` as the molecule, how does the “activity, negative = inhibition” value read?
A: The value was inactive: -4.97%.

Q: Which Potency does the source give for `Cc1sc(NC(=O)/C=C/c2ccco2)c(C(=O)OC(C)C)c1C` here?
A: Its Potency is active: 15.8 µM.

Q: With `Cc1ccccc1OCCCN1C(=O)C(=O)c2cccc(C)c21` as the molecule, how does the Potency read?
A: Its Potency is active: 11.2 µM.

Q: Which Potency does the source give for `Cn1c(CN2CCN(c3ccc(Cl)cc3)CC2)nc2ccccc21` here?
A: Its Potency is inconclusive [inhibitor, single point].

Q: With `COc1ccc(OC)c(NC(=O)CN(Cc2ccc(F)cc2)C2CCCCC2)c1` as the molecule, how does the Potency read?
A: Its Potency is active: 17.8 µM.

Q: Which “activity, negative = inhibition” value does the source give for `Nc1ncnc2c1ncn2CCOCP(=O)(O)O` here?
A: The value was inactive: -6.85%.

Q: With `Cc1ccc(C(=O)NC(=S)NCC2CCCO2)cc1[N+](=O)[O-]` (stereo not given) as the molecule, how does the Potency read?
A: The Potency was inconclusive [inhibitor, single point].

Q: For `COc1ccccc1OCC(=O)n1cc(C(=O)c2cc(Cl)cc(Cl)c2O)cn1`, which Potency is on record?
A: Its Potency is inconclusive [inhibitor, single point].

Q: With `CC(C)Oc1cc(O)c2c(=O)c(-c3ccc(O)cc3)coc2c1` as the molecule, how does the Potency read?
A: Its Potency is inconclusive [activator, full curve, poor fit].

Q: For `O=C(c1cccc(F)c1)N1CCC[C@@]2(CCN(Cc3ccccc3)C2)C1`, which “activity, negative = inhibition” value is on record?
A: Its value is inactive: -2.65%.

Q: For `O=c1c2ccccc2ncn1-c1ccc(Cl)cc1`, which Potency is on record?
A: The Potency was inconclusive [activator, single point].

Q: With `Cn1c(=O)oc2cc(S(=O)(=O)NCCC(=O)N3CC=C(c4ccccc4)CC3)ccc21` as the molecule, how does the Potency read?
A: The Potency was inconclusive [inhibitor, single point].

Q: With `Cc1ccc(SC(C)c2nc(-c3cccnc3)no2)cc1` (stereo not given) as the molecule, how does the Potency read?
A: Its Potency is inconclusive [inhibitor, single point].

Q: With `C/C(=N\OCC(=O)Nc1ccccc1C(C)(C)C)c1ccc2c(c1)OCCO2` as the molecule, how does the “activity, negative = inhibition” value read?
A: The value was inactive: 2.91%.

Q: Which “activity, negative = inhibition” value does the source give for `Cc1ccc(N2CN(Cc3cccnc3)CNC2=S)cc1` here?
A: The value was inactive: -12.1%.

Q: For `O=C(NN=C1CCN(Cc2ccccc2)CC1)c1cc(Br)ccc1O`, which Potency is on record?
A: Its Potency is inconclusive [inhibitor, single point].

Q: Which Potency does the source give for `CCCCCC(C)NC(=O)c1ccoc1C` (stereo not given) here?
A: Its Potency is inconclusive [activator, single point].

Q: For `Cc1c(Cl)c([N+](=O)[O-])nn1CC(=O)Nc1ccc2c(c1)OCO2`, which “activity, negative = inhibition” value is on record?
A: Its value is inactive: -7.95%.

Q: For `COc1cc2ccccc2cc1-c1nnc(COc2ccccc2)o1`, which Potency is on record?
A: Its Potency is inconclusive [inhibitor, full curve, poor fit].

Q: With `COc1ccc2nc(Nc3nc(-c4cc5ccccc5oc4=O)cs3)sc2c1` as the molecule, how does the Potency read?
A: The Potency was inconclusive [inhibitor, partial curve].

Q: Which “activity, negative = inhibition” value does the source give for `c1cc(-c2ccncc2)ccn1` here?
A: The value was inactive: 2.1%.

Q: With `Nc1nc(=S)[nH]c2c1C1(CCCC1)Cc1ccccc1-2` as the molecule, how does the Potency read?
A: The Potency was active: 8.91 µM.

Q: For `CC(C)(C)c1nnc(NC(=O)c2cccs2)s1`, which Potency is on record?
A: The Potency was inconclusive [activator, full curve].

Q: For `COCCNC(=S)N(CCc1c(C)[nH]c2ccc(Cl)cc12)Cc1cccs1`, which Potency is on record?
A: Its Potency is inconclusive [inhibitor, single point].

Q: With `O=C(O)/C(=C\c1cn(-c2ccccc2)nc1-c1cccnc1)NC(=O)c1ccccc1` as the molecule, how does the “activity, negative = inhibition” value read?
A: The value was inactive: -9.77%.

Q: For `O=C1CC(SCc2nc3ccccc3[nH]2)C(=O)N1c1ccc(Cl)cc1` (stereo not given), which Potency is on record?
A: Its Potency is active: 6.31 µM.

Q: With `Cc1cccc(COc2ncnc3nc[nH]c23)c1` as the molecule, how does the “activity, negative = inhibition” value read?
A: The value was inactive: 2.29%.

Q: For `Cc1cc(C)n2c(=S)[nH]nc2n1`, which Potency is on record?
A: The Potency was inconclusive [inhibitor, single point].

Q: With `Cc1ccc(C(C)C)c(OCC(O)CN2CCc3ccccc3C2)c1` (stereo not given) as the molecule, how does the Potency read?
A: The Potency was active: 22.4 µM.

Q: For `O=C(N/N=C\c1cccc([N+](=O)[O-])c1O)C1COc2ccccc2O1` (stereo not given), which Potency is on record?
A: Its Potency is active: 2 µM.

Q: Which Potency does the source give for `CC(NC(=O)Nc1cccc([N+](=O)[O-])c1)(C(F)(F)F)C(F)(F)F` here?
A: Its Potency is inconclusive [inhibitor, partial curve].

Q: For `CCc1ccccc1NC(=O)Nc1cccs1`, which Potency is on record?
A: The Potency was inconclusive [inhibitor, single point].
